Measurements as given in patent publication EP4703390A1 (Chia Tai Tianqing Pharmaceutical Group Co., Ltd., dated 2026).

B1: 1B-1B6-Fc (Fc fusion)
chain: QVQLVESGGDSVQAGGSLRLSCAASAHAYSSGCMGWFRQAPGKGREGVATIYTRNDFTYYSDSVKGRFTISRDDAKNTVYLQVNSLKAEDTAMYYCAAGSPFRYAGAWNVCGLKEEDYNYWGQGTLVTVSSEPKIPQPQPKPQPQPQPQPKPQPKPEPEC[omitted - human IgG1 Fc with P228K (EU numbers)]
notes: also called anti-human c-Met VHH-Fc chimeric antibody 1B-1B6-Fc
B2: 1B-1B2-Fc (Fc fusion)
chain: EVQLVESGGGSVQAGGSLRLSCTASGFTFDMGWYRQAPGDECELVSSISSDGNSDYLDSVKGRFTISQDNAKNTVYLQMNSLKPEDTAVYYCAANGAGHLVLRPLCGSNAVDAWGQGTLVTVSSEPKIPQPQPKPQPQPQPQPKPQPKPEPEC[omitted - human IgG1 Fc with P228K (EU numbers)]
notes: also called anti-human c-Met VHH-Fc chimeric antibody 1B-1B2-Fc
B3: 1B-1C7-Fc (Fc fusion)
chain: QVQLVESGGGLVQPGGSLRLSCAASGYSYSANCVGWFYQAPGKEREGVAAINTGGETATYADFVKGRFTISQDYAKNTVYLQMNSLKSEDTGMYYCAAVGTRKYWDECSLSQHAYKNWGQGTLVTVSSEPKIPQPQPKPQPQPQPQPKPQPKPEPEC[omitted - human IgG1 Fc with P228K (EU numbers)]
notes: also called anti-human c-Met VHH-Fc chimeric antibody 1B-1C7-Fc
B4: 3B-1C7-Fc (Fc fusion)
chain: QVQLVESGGDSVQAGGSLRLSCIASGFTFDGTTMGWYRQAPGDECELVSDISSDGNTYYSDSVKGRFTISQGNAKNTVYLQMNSLTPEDTAVYYCAAAEFRLLLRPLCRQDDYGYWGQGTLVTVSSEPKIPQPQPKPQPQPQPQPKPQPKPEPEC[omitted - human IgG1 Fc with P228K (EU numbers)]
notes: also called anti-human c-Met VHH-Fc chimeric antibody 3B-1C7-Fc
B5: 1B-3B11-Fc (Fc fusion)
chain: QVQLVESGGGSVQAGGSLRLSCVVSGYTYSSVAWFRQTPGKEREGVAVINPGGDNTDYTYAVKGRFTISRDSAKSTVFLQMNNLESEDTAMYYCAAGRTFGGTWMDRNKWKYWGQGTLVTVSSEPKIPQPQPKPQPQPQPQPKPQPKPEPEC[omitted - human IgG1 Fc with P228K (EU numbers)]
notes: also called anti-human c-Met VHH-Fc chimeric antibody 1B-3B11-Fc

Each binder was assayed against T1, cynomolgus c-Met-His (SinoBiological, Cat. No. 90304-C08H) (cynomolgus, UniProt A0A2K5UM36 25-932) (assay: SPR (Biacore), antibody captured on anti-hIgG Fc chip, c-Met-His as analyte, 1:1 fit).
T1 construct: Bought protein; also called cynomolgus c-Met protein

Kd [nM]	Binder
6.85	B1
2.74	B2
0.188	B3
0.254	B4
0.664	B5
